In PubChem BioAssay AID1240 (Sanford-Burnham Center for Chemical Genomics, 2008) one finds displacement data, which are given here for 110 molecules.

Out of some 50,000 compounds screened, about 800 (1.6%) showed an effect of 50% or more. The list shows a part of the results.

The assay addresses Bcl-2-like protein 10 (Homo sapiens) (UniProt Q9HD36). Briefly: TR3 peptide-Bcl-B binding displacers, biochemical primary FP assay, phenotype converters (AID 1240).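 Further: 0% = Bcl-B with tracer peptide and DMSO and 100% = tracer peptide lacking Bcl-B.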 As to conditions: GST-Bcl-B / FITC-TR3 peptide fluorescence polarization; stronger effect = higher value; compound at 3.75 mg/L. (In fluorescence polarisation assays a small probe gives low polarisation when free and higher when bound to something large.)
UniProt Q9HD36, sequence (Q9HD36 whole entry, looked up): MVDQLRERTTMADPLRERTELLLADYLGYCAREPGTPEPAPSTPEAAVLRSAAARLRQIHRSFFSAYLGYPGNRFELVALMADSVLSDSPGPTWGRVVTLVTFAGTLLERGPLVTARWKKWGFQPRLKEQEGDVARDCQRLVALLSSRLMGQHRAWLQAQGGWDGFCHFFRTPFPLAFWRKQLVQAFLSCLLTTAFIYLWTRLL
For `CS(=O)(=O)N(CC(=O)Nc1cc(Cl)cc(Cl)c1)c1ccc(Cl)cc1`, the displacement is -3.2%. As for `COc1ccc(CCNC(=O)c2ccccc2N(Cc2ccccc2)S(=O)(=O)c2ccccc2)cc1OC`, the displacement was -7.2%.

Take `COC(=O)c1ccc(C(=O)OC)c(NC(=O)c2cccc(OC)c2)c1`: the displacement came out at 15%. For `Cc1cccc(N2C(=O)NC(=O)/C(=C\c3ccc(OCc4cccc(C(=O)O)c4)cc3)C2=O)c1`, the displacement worked out at 3.3%. Regarding `N#Cc1cc(N=Cc2cccc(C=Nc3ccc(N)c(C#N)c3)c2)ccc1N`, the displacement stood at 15.2%. As to `CC(NC(=O)CN1CCCCC1)C1CC2CCC1C2` (stereo not given), the displacement is -8.9%. `COc1ccc(NC(=O)c2cccc(C(F)(F)F)c2)c2ccccc12`: the displacement came out at 10.3%. Regarding `O=C(CCN1C(=O)c2ccccc2C1=O)NCc1ccncc1`, the displacement is -6.7%. Regarding `CCOC(=O)C(=O)Nc1nc(C23CC4CC(CC(C4)C2)C3)cs1`, the displacement turned out to be 3.2%.

As to `Cc1ccc([N+](=O)[O-])cc1Cc1cc(Cl)ccc1Cl`, the displacement was determined as 5.1%. Take `CCCOc1cccc(NC(=O)c2c(-c3ccccc3)noc2C)c1`: the displacement was -5.5%. As to `CCOc1ccc(NC(=O)C(=O)Nc2cccc(C(F)(F)F)c2)cc1`, the displacement came out at 12.6%.

For `CCCn1c(SCC(=O)O)nc2ccccc21`, the displacement worked out at 11.8%.

Regarding `COC1(/C(N)=C/C(=O)c2ccccc2)CCCCC1`, the displacement turned out to be 5.1%.

With `O=C(CN1CCOCC1)NCC12CC3CC(CC(C3)C1)C2`, the displacement was determined as 4.5%. As for `CCOCc1cnc(C)nc1NC(C)=O`, the displacement was determined as 3.9%. Regarding `O=C1CCCC2=C1C(c1ccc(O)c(O)c1)Nc1ccc3ncccc3c12` (stereo not given), the displacement amounted to 33.3%. For the molecule `CN1CCN(CCOCCOc2ccccc2)CC1`, the displacement was -7.9%.

As to `CCC(=O)Nc1ccc(NC(=O)c2cc3ccccc3o2)cc1`, the displacement was found to be 5.1%.

Take `CCOC(=O)c1sc(NC(=O)C2CC3CCC2C3)c(C(=O)OCC)c1C` (stereo not given): the displacement is -6.3%. With `COc1ccc(/C=C/C(=O)Nc2ccc(NC(=O)c3cc4ccccc4o3)c(OC)c2)cc1` the figure was 10%; with `COc1ccccc1/C=N/n1c(C)nnc1C`, 2.2%.

In the case of `O=C(/C=C/c1ccccc1)N1CCC(CN2C(=O)c3cccc4cccc(c34)C2=O)CC1`, the displacement worked out at 9.9%. Turning to `C#Cc1cccc(N2C(=O)c3c(Br)c(Br)c(Br)c(Br)c3C2=O)c1`, the displacement was 2.7%. With `COc1ccc(C2CC(=O)C3=C(C2)Nc2ccccc2NC3c2ccc(F)cc2)cc1OC` (stereo not given), the displacement came to 8.5%.

As for `COc1ccc(OC)c(NC(=O)c2cc3cc(Br)ccc3oc2=O)c1`, the displacement amounted to 0.5%.

For `CCOC(=O)C1CCN(S(=O)(=O)c2cc(Cl)ccc2Cl)CC1`, the displacement is -3.5%.

Turning to `COc1ccc(-c2nnnn2C)cc1S(=O)(=O)Nc1ccc(I)cc1`, the displacement amounted to 11.3%. `O=C(Nc1cccnc1)c1cccc2c1C(=O)c1ccccc1-2`: the displacement was -1.4%. To `O=C(/C=C/c1ccccc1)NC(=S)Nc1ccc(NC(=O)c2ccco2)c(Cl)c1` belongs 14.1%; to `Cc1ccc(NC(=O)CSCC(=O)Nc2ccccc2)c(C)c1`, -2.1%; to `Cc1ccc(NC(=O)Nc2nccs2)cc1`, -11.6%.

With `S=C(Nc1cccc2ccccc12)N1CCN(C(c2ccccc2)c2ccccc2)CC1`, the displacement is 20.4%. With `O=C(CSc1nc2ccccc2s1)c1cccs1`, the displacement is -13%.

As to `COc1ccc(-c2csc(-c3cc4cc(Cl)cc(Cl)c4oc3=O)n2)cc1`, the displacement is 75%. In the case of `O=C(/C=C/c1cccc([N+](=O)[O-])c1)Nc1ccc(-c2nc3ccccc3o2)c(O)c1`, the displacement turned out to be 2.3%. In the case of `O=C(CC1S/C(=N\N=C2/CCCc3ccccc32)NC1=O)Nc1ccc(Cl)cc1Cl` (stereo not given), the displacement came to 7.3%. To `CC(=O)NS(=O)(=O)c1ccc(NC(=O)c2cccc(C)c2)cc1` belongs 8.1%; to `COc1cc(NC(=O)COc2ccccc2[N+](=O)[O-])ccc1NC(=O)c1ccco1`, -1.2%; to `CCOC(=O)c1c(-c2ccc(C)cc2)csc1NC(=O)c1cc2ccccc2oc1=O`, 6.6%. For the molecule `O=C1NC(=Nc2ccc(F)cc2)S/C1=C/C=C/c1ccccc1`, the displacement turned out to be 13.8%. With `COc1ccc2oc(=O)c(C(=O)Nc3cccc([N+](=O)[O-])c3)cc2c1` the figure was 10.3%. Take `NC(=O)CN(Cc1ccccc1)S(=O)(=O)c1ccccc1`: the displacement worked out at 3.2%. With `COc1cc(C2Nc3ccccc3NC3=C2C(=O)CC(C)(C)C3)cc(OC)c1OC(C)=O` (stereo not given) the figure was -23.2%.

With `COc1ccc(N=c2ssc3c2-c2ccc(OC)cc2NC3(C)C)cc1`, the displacement is -8%. `Cc1cc(OCC(=O)Nc2ccc(N3CCOCC3)cc2)ccc1Br`: the displacement is -9.7%. With `O=C(/C=C/c1ccc2c(c1)OCO2)n1cnc2ccccc21` the figure was 13.6%; with `COc1cccc(/C=N/n2c(-c3ccccc3)n[nH]c2=S)c1`, -1.6%.

On to `COc1ccc(OC)c(C2NC(=S)NC(C)=C2C(=O)OCCc2ccccc2)c1` (stereo not given), for which the displacement stood at 3.9%. With `O=C(Nc1ccc2oc(-c3cccc4ccccc34)nc2c1)c1ccc([N+](=O)[O-])cc1`, the displacement came to 11.4%. As for `COc1cc(C(=O)N2CCN(Cc3cccc4ccccc34)CC2)cc(OC)c1OC`, the displacement is 5.8%. `COc1ccc(C2Nc3ccccc3C(=O)N2Cc2ccccc2)cc1Cn1nnc2ccccc21` (stereo not given): the displacement was -4.3%. To `CNC(=O)OCCc1ccc(-c2ccccc2)o1` belongs 10.5%; to `O=C(O)c1cc(Cl)ccc1NC(=O)C(c1ccccc1)c1ccccc1`, 2.7%.

For the molecule `Cc1ccc(NC(=O)C2C3C=CC(C4CC34)C2C(=O)O)c(C)c1` (stereo not given), the displacement amounted to 2.2%.

For the molecule `COc1ccc(N(CC(=O)Nc2cc(C)ccc2C)S(C)(=O)=O)cc1`, the displacement amounted to 6.4%. Consider `N/C(=N\OC(=O)C(c1ccccc1)c1ccccc1)c1cccnc1`, for which the displacement came out at 10.3%. In the case of `COC(=O)c1cc(C(=O)Nc2nccs2)cc([N+](=O)[O-])c1`, the displacement was -7.8%. As to `O=C1NN(c2ccc(Cl)cc2)C(=O)/C1=C\c1ccc(-c2cccc(C(=O)O)c2)o1`, the displacement worked out at 5%. With `O=c1c2ccccc2n(Cc2cccc(C(F)(F)F)c2)c2ccccc12` the figure was -1.9%; with `Cc1ccc(OCC(=O)Nc2ccc([N+](=O)[O-])cc2)c(C)c1`, 8.8%. As to `CC(C)c1ccc(N2C(=O)NC(=O)/C(=C/c3ccc(I)o3)C2=O)cc1`, the displacement is -9.8%.

Turning to `O=C(COc1ccc(Cl)cc1)Nc1nn[nH]n1`, the displacement came out at 1.9%. To `CCOC(=O)Cc1csc(NC(=O)COc2cc(C)ccc2C(C)C)n1` belongs -1.6%.

In the case of `Cn1c(O)c(C(=NCc2ccccc2)c2ccccc2)c(=O)n(C)c1=O`, the displacement worked out at 6.7%. For the molecule `CCOc1ccc(/C=C2/C(=O)NN(c3ccccc3)C2=O)cc1OC`, the displacement is 9.6%. Regarding `O=C(NCCNc1ccc(Cl)cc1[N+](=O)[O-])c1cccc2ccccc12`, the displacement is 14.2%. To `CSc1ccc(/C=C2\C(=O)NC(=O)N(c3cc(C)cc(C)c3)C2=O)cc1` belongs -7.2%.

Turning to `COc1ccc(C(=O)Nc2ccc(NC(C)=O)cc2)cc1[N+](=O)[O-]`, the displacement was determined as 2.7%. Take `Cc1ccc(NC(=O)CN(c2ccc(F)cc2)S(=O)(=O)c2ccccc2)cc1C`: the displacement came to 3.9%. With `Cc1cc(Cl)ccc1OCC(O)CN1CCN(Cc2ccccc2)CC1` (stereo not given) the figure was -0.3%. Turning to `Cc1ccc2nc(N3C(=O)c4cccc5cccc(c45)C3=O)sc2c1`, the displacement was -15.5%.

For the molecule `O=C(Nc1cccc2ccccc12)c1ccc(S(=O)(=O)N2CCOCC2)cc1`, the displacement turned out to be 7.8%. Turning to `O=C(NCCSCc1cccc(Cl)c1)c1c(Cl)cccc1Cl`, the displacement amounted to 2.1%. To `O=C(COc1ccc(Br)cc1)N1CCN(c2ccccn2)CC1` belongs -8.5%. Take `O=C1c2cccc3cccc(c23)C(=O)N1c1ccc2c(c1)oc1ccccc12`: the displacement is -6%.

On to `COc1cc(/C=C2\C(=O)NC(=O)N(c3ccc(C)cc3)C2=O)ccc1OCc1ccc(C(=O)O)cc1`, for which the displacement is -28.6%. Consider `CN(C)c1cccc(C(=O)Nc2ccncc2)c1`, for which the displacement came out at 10.5%. For the molecule `CC(=O)Nc1ccccc1NC(=O)COc1ccc(C)cc1Br`, the displacement was -9.6%. As to `CCCCCCCCC(=O)N/N=C(\C)c1ccco1`, the displacement was 11.8%.

As to `CC1=C(C(=O)OCCc2ccccc2)C(c2ccc([N+](=O)[O-])s2)NC(=O)N1C` (stereo not given), the displacement is 4.3%. On to `COCCNC(=O)COc1ccc(C)cc1Br`, for which the displacement is -11.1%. `O=C(Nc1ccccc1)Nc1cccc(Cl)c1Cl`: the displacement was -8.5%. Turning to `Cc1cc(-c2ccc(Cl)cc2)nc2cc(C(=O)O)nn12`, the displacement was 15.3%. `Cc1ccc(NC(=O)c2ccc3nc4ccccc4nc3c2)cc1`: the displacement is -8.5%. With `OCc1ccc(-c2cc(C(F)(F)F)cc(C(F)(F)F)c2)o1` the figure was 12.5%; with `COc1ccc(C=NN2CCN(c3ccccn3)CC2)cc1OCc1ccccc1`, -1.3%; with `COc1cccc(C2NC(=S)NC(C)=C2C(=O)Nc2ccc(Br)cc2)c1OC` (stereo not given), 11.9%. Consider `CC1=C(C(=O)Nc2ccc(Cl)cc2)C(c2cccs2)NC(=O)N1` (stereo not given), for which the displacement stood at 1.4%. `COc1ccc(N2C(=O)c3ccc(C(=O)Nc4ccc(NC(C)=O)cc4)cc3C2=O)cc1`: the displacement was found to be 5.9%. With `CNC(=O)CN(c1ccc(C)cc1)S(=O)(=O)c1ccc(SC)cc1` the figure was 1.3%; with `CC(=O)c1ccc(NC(=O)c2ccoc2C)cc1`, 94%.

Consider `NNc1nc(Nc2ccc(Br)cc2)nc(OC(C(F)(F)F)C(F)(F)F)n1`, for which the displacement was -19%. With `O=C(Nc1ccccc1C(=O)O)c1ccc(N2C(=O)C3C4C=CC(C4)C3C2=O)cc1` (stereo not given) the figure was -3.6%.

Take `COc1ccc(NC(=O)CN(c2c(C)n(C)n(-c3ccccc3)c2=O)S(=O)(=O)c2ccccc2)cc1`: the displacement is -0.6%. As for `CCOC(=O)c1ccc2nc(C)c(CCC(C)=O)c(Cl)c2c1`, the displacement was determined as 0.7%. As to `CCc1ccc(OCC(=O)Nc2ccc(O)c(-c3nc4ccccc4s3)c2)cc1`, the displacement was 12.7%. Consider `O=C(NCCO)C1COc2ccccc2O1` (stereo not given), for which the displacement was 4%.

As to `O=c1c2c(nc3cc(-c4cccc(Cl)c4)[nH]n13)CCS2`, the displacement was 34.8%.

On to `Cc1ccc(-c2cc(C(F)(F)F)n3nc(C(=O)NCc4cccs4)cc3n2)cc1`, for which the displacement stood at 9.9%. To `CCOC(=O)C1CCN(C(=O)Nc2ccc(Cl)cc2)CC1` belongs 13.2%; to `COc1ccc(CC(=O)N2CC(C)CC(C)C2)cc1` (stereo not given), 8.9%; to `Cc1ccc(NC(=S)NC(=O)c2ccccc2)cc1Br`, 9%. On to `CCCCOc1ccc(C(=S)N2CCOCC2)cc1`, for which the displacement came to 11.2%. Take `COC(=O)CN(c1ccc(F)cc1)S(=O)(=O)c1ccccc1`: the displacement amounted to 12.2%.

On to `Cc1ccccc1OCC(=O)NCc1ccccn1`, for which the displacement is -8%.

With `O=C(c1cccc(Cl)c1)N1CCN(C2CCN(Cc3ccccc3)CC2)CC1`, the displacement was -10.8%.

For `Cc1nnc(C)n1/N=C/c1ccccc1Cl`, the displacement was -2.9%. For `O=C(COc1ccc2ccc(=O)oc2c1)c1ccc(-c2ccccc2)cc1`, the displacement was 13.1%. Regarding `O=C(CSc1nnc(Cc2ccccc2)o1)c1ccc(Cl)cc1`, the displacement is 13.1%.
